# Data reported in patent publication US20260034244A1 (PANOLOS BIOSCIENCE, published 2026).
# Changes are numbered by the printed parent chain. Numbers in names are those of the source.
# B1: C103 (Fc fusion)
# chain: EFGRPFVEMYSEIPEIIHMTEGRELVIPCRVTSPNITVTLKKFPLDTLIPDGKRIIWDSRKGFIISNATYKEIGLLTCEATVNGHLYKTNYLTHRQTNTIIDVQISTPRPVKLLRGHTLVLNCTATTPANTRVQMTWSYPDEKNKRASVRRRIDQSNSHANIFYSVLTIDGMTNSDQGLYTCRVRSGPSFKSVNTSVHIYDLE[gap - human IgG1 Fc]
# notes: Based on C88; L258A/K300G/Q302T/K304S/K306Q; IgG1 Fc
# B2: C105 (Fc fusion)
# chain: B1 chain with K112E, L114S, R115V, H117E
# notes: Based on C88; K241E/L243S/R244V/H246E/L258A/K300G/Q302T/K304S/K306Q; IgG1 Fc
# B3: C106 (Fc fusion)
# chain: B1 chain with K112E, L114S, R115V, H117E, T173Q, S175K, Q177K
# notes: Based on C88; K241E/L243S/R244V/H246E/L258A/K300G; IgG1 Fc
# B4: C88 (Fc fusion)
# chain: EFGRPFVEMYSEIPEIIHMTEGRELVIPCRVTSPNITVTLKKFPLDTLIPDGKRIIWDSRKGFIISNATYKEIGLLTCEATVNGHLYKTNYLTHRQTNTIIDVQISTPRPVKLLRGHTLVLNCTATTPLNTRVQMTWSYPDEKNKRASVRRRIDQSNSHANIFYSVLTIDKMQNKDKGLYTCRVRSGPSFKSVNTSVHIYDKALE[gap - human IgG1 Fc]
# notes: dimer only said as embodiment; also called VEGFR-wild type protein
# B5: C111 (Fc fusion)
# chain: EFGRPFVEMYSEIPEIIHMTEGRELVIPCRVTSPNITVTLKKFPLDTLIPDGKRIIWDSRKGFIISNATYKEIGLLTCEATVNGHLYKTNYLTHRQTNTIIDVQISTPRPVKLLRGHTLVLNCTATTPLNTRVQMTWSYPDEKNKRASVRRRIDQSNSHANIFYSVLTIDKMQNKDKGLYTCRVRSGPSFKSVNTSVHIYDEGSSGGSSGEPKS[gap - human IgG1 Fc and a few adjoining residues]
# notes: Based on C88; IgG1 Fc
# B6: C109 (Fc fusion)
# chain: EFGRPFVEMYSEIPEIIHMTEGRELVIPCRVTSPNITVTLKKFPLDTLIPDGKRIIWDSRKGFIISNATYKEIGLLTCEATVNGHLYKTNYLTHRQTNTIIDVQISTPRPVKLLRGHTLVLNCTATTPLNTRVQMTWSYPDEKNKRASVRRRIDQSNSHANIFYSVLTIDKMQNKDKGLYTCRVRSGPSFKSVNTSVHIYDGSKVDKKV[gap - human IgG1 Fc with changes]
# notes: Based on C88; IgG1 Fc
# B7: C108 (Fc fusion)
# chain: EFGRPFVEMYSEIPEIIHMTEGRELVIPCRVTSPNITVTLKKFPLDTLIPDGKRIIWDSRKGFIISNATYKEIGLLTCEATVNGHLYKTNYLTHRQTNTIIDVQISTPRPVKLLRGHTLVLNCTATTPLNTRVQMTWSYPDEKNKRASVRRRIDQSNSHANIFYSVLTIDKMQNKDKGLYTCRVRSGPSFKSVNTSVHIYDGSSG[gap - human IgG1 Fc with changes]
# notes: Based on C88; IgG1 Fc
# B8: C47 (Fc fusion)
# chain: EFGRPFVEMYSEIPEIIHMTEGRELVIPCRVTSPNITVTLKKFPLDTLIPDGKRIIWDSRKGFIISNATYKEIGLLTCEATVNGHLYKTNYLTHRQTNTIIDVQISTPSPVCLLRGHTLVLNCTATTPLNTRVQMTWSYPDEKNKNASVRRRIDQSNSHANIFYSVLTIDKMQNKDKGLYTCRVRSGPSFKSVNTSVHIYDGCKVDKKV[gap - human IgG1 Fc with C220S H224Y (EU numbers)]
# notes: Disulfide bond variant based on VEGF-Grab3
# B9: C48 (Fc fusion)
# chain: B8 chain with C112T, L114C, Y200C, C203S
# notes: Disulfide bond variant based on VEGF-Grab3; L243C/Y329C
# B10: C50 (Fc fusion)
# chain: B8 chain with C112T, R115C, Y200C, C203S
# notes: Disulfide bond variant based on VEGF-Grab3; R244C/Y329C
# B11: C49 (Fc fusion)
# chain: B8 chain with C112T, L114C, G202C, C203S
# notes: as for B8
# B12: C51 (Fc fusion)
# chain: B8 chain with C112T, N174C, Y200C, C203S
# notes: Disulfide bond variant based on VEGF-Grab3; N303C/Y329C
# Molecular target: T1, VEGF-A (UniProt P15692-4 27-191, limits assumed)
# T1 construct: also called vascular endothelial growth factor A
# T1 sequence (looked up): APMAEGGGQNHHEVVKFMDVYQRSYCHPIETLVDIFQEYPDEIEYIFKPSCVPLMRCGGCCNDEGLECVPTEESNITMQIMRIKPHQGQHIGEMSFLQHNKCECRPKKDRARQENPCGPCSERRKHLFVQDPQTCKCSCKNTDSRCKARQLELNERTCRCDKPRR
# Assay: BLI Octet; fold increase vs C88
Binder,Fold (KD) [fold],Fold (kdis) [fold],Fold (kon) [fold]
B1,0.24,0.49,0.5
B2,> 60.9,> 100,0.46
B3,> 60.9,> 100,0.44
B4,1,1,1

# Molecular target: T2, PLGF (UniProt P49763-2 19-149, limits assumed)
# T2 construct: also called placental growth factor
# T2 sequence (looked up): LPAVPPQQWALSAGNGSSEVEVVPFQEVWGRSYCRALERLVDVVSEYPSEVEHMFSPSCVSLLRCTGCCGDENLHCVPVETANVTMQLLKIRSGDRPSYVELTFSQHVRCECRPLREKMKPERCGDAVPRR
# Assay: BLI Octet; fold increase vs C88
Binder,Fold (KD) [fold],Fold (kdis) [fold],Fold (kon) [fold]
B5,1.18,0.63,1.87
B6,0.83,0.62,1.34
B7,0.87,0.33,2.61
B4,1,1,1

# Molecular target: VEGF-A (UniProt P15692)
# Assay: cell-based or functional assay
row,Binder,"IC50 (µg/ml), luciferase reporter, KDR/NFAT-RE HEK293 cells [µg/mL]"
1,B5,0.0488
2,B7,0.0519

# Molecular target: T1, VEGF-A
# Assay: BLI Octet; fold increase vs C88
# Remark: another data set of the same source
Binder,Fold (KD) [fold],Fold (kdis) [fold],Fold (kon) [fold]
B5,1.62,1.34,1.21
B6,0.23,0.25,0.9
B7,0.19,0.23,0.84
B4,1,1,1

# Molecular target: T2, PLGF
# Assay: BLI Octet; fold increase vs C88
# Remark: another data set of the same source
Binder,Fold (KD) [fold],Fold (kdis) [fold],Fold (kon) [fold]
B1,1.27,0.7,1.82
B2,0.76,0.52,1.45
B3,0.84,0.44,1.9
B4,1,1,1

# Molecular target: T1, VEGF-A
# Assay: BLI Octet RED96e, AHC capture
Binder,Kd [nM],koff [s⁻¹],kon [M⁻¹ s⁻¹]
B1,0.249,7.15e-05,288000
B2,–,< 1e-07,267000
B3,–,< 1e-07,257000
B4,0.0608,3.51e-05,578000

# Molecular target: T1, VEGF-A
# Assay: BLI Octet RED96e, AHC capture
# Remark: another data set of the same source
Binder,Kd [nM],koff [s⁻¹],kon [M⁻¹ s⁻¹]
B5,0.0375,2.63e-05,699000
B6,0.267,0.000139,521000
B7,0.314,0.000152,483000
B4,–,3.51e-05,578000

# Molecular target: T2, PLGF
# Assay: BLI Octet RED96e, AHC capture
Binder,Kd [nM],koff [s⁻¹],kon [M⁻¹ s⁻¹]
B1,0.161,0.000355,2.21e+06
B2,0.27,0.000475,1.76e+06
B3,0.245,0.000564,2.31e+06
B4,0.205,0.000248,1.21e+06

# Molecular target: T2, PLGF
# Assay: BLI Octet RED96e, AHC capture
# Remark: another data set of the same source
Binder,Kd [nM],koff [s⁻¹],kon [M⁻¹ s⁻¹]
B5,0.174,0.000393,2.27e+06
B6,0.247,0.000402,1.63e+06
B7,0.236,0.000746,3.16e+06
B4,0.205,0.000248,1.21e+06

# Molecular target: T3, VEGF-A (UniProt P15692-4 27-191, limits assumed)
# T3 construct: Analyte at 40, 20, 10 nM; also called vascular endothelial growth factor A
# T3 sequence (looked up): T1 sequence (looked up)
# Assay: BLI (Octet), fusion captured on AHC sensor; fold increase vs VEGF-Grab3 (Panolos Bioscience)
Binder,Fold (KD) [fold],Fold (kdis) [fold],Fold (kon) [fold]
B8,0.7,0.77,0.91
B9,0.95,0.83,1.15
B10,0.3,0.16,1.89
B11,1.43,1.44,0.99
B12,0.39,0.24,1.62

# Molecular target: T4, PLGF (UniProt P49763-2 19-149, limits assumed)
# T4 construct: also called placental growth factor
# T4 sequence (looked up): T2 sequence (looked up)
# Assay: as above
Binder,Fold (KD) [fold],Fold (kdis) [fold],Fold (kon) [fold]
B8,1.55,2.11,0.74
B9,2.26,1.72,1.31
B10,2.98,1.43,2.08
B11,1.4,1.6,0.88
B12,2.39,2.26,1.05

# Molecular target: T3, VEGF-A
# Assay: BLI (Octet), fusion captured on AHC sensor; fold increase vs VEGF-Grab3 (Samsung Biologics)
Binder,Fold (KD) [fold],Fold (kdis) [fold],Fold (kon) [fold]
B8,0.19,0.18,1.04
B9,0.26,0.19,1.31
B10,0.08,0.04,2.16
B11,0.38,0.34,1.14
B12,0.1,0.06,1.85

# Molecular target: T4, PLGF
# Assay: as above
Binder,Fold (KD) [fold],Fold (kdis) [fold],Fold (kon) [fold]
B8,2.22,2.58,0.86
B9,3.23,2.1,1.54
B10,4.26,1.75,2.43
B11,2.01,1.96,1.03
B12,3.41,2.77,1.23
